# Data reported in PubChem BioAssay AID493208 (National Center for Advancing Translational Sciences (NCATS), 2011).
# Among all 44,000 compounds or so, about 340 (0.77%) were called active. Not shown: some 5% with an inconclusive outcome. Calls follow the shape of the dose curve; as a rule, active = well fitted inhibition curve with a large enough effect; inconclusive = small, poorly fitted or top-dose-only effect; inactive = flat fitted curve, though single readings scatter. This is one part of the list.
# Test: Acumen qHTS Assay for Inhibitors of the mTORC1 Signaling Pathway in MEF (Tsc2-/-, p53-/-) Cells: Sytravon;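 also: plate controls were DMSO for no effect and rapamycin for full effect; nearly all actives have a fitted effect of over 50% in size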
# Details: phospho-rpS6 immunofluorescence/PI, 24 h; series mostly up to 38.3 µM; activity change, negative = inhibition: at the top concentration
# Method in brief: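 Compounds act on Tsc2-/-, p53-/- fibroblasts carrying an empty vector for 24 h before fixation and dual staining for phospho-S6 and DNA (propidium iodide). Values are percentages of cells above a rapamycin-defined pS6/PI threshold.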
row,SMILES,"activity change, negative = inhibition"
1,COc1ccc(S(=O)(=O)NCC(c2ccc(N(C)C)cc2)N2CCCC2)cc1F (stereo not given),inactive: 2.3%
2,Cc1ccc(Cl)cc1N1CCN(S(=O)(=O)c2ccc3oc(=O)c4ncn(C)c4c3c2)CC1,inactive: -13.5%
3,CCc1ccc(OCC(=O)Nc2ccc(Cl)c(-c3nc4cc(C)cc(C)c4o3)c2)cc1,inactive: -9.99%
4,Cc1cccc(OCC(=O)NCC2(N3CCN(C)CC3)CCCCC2)c1,inactive: -6.82%
5,Cc1cccc(NC(=O)CN2C(=O)COc3ccc(S(=O)(=O)Nc4ccccc4)cc32)c1C,inactive: -0.201%
6,Cc1[nH]c2ccc(C(=O)NCCc3ccccc3Cl)cc2c1C,inactive: -5.31%
7,CCCS(=O)(=O)N1CC(=O)N(c2ccccc2C)C(C)(C(=O)NC2CCCCC2)C1 (stereo not given),inactive: 1.72%
8,Cc1ccc(S(=O)(=O)c2nnn3c2nc(NCc2ccc(F)cc2)c2sccc23)cc1C,inactive: -9.61%
9,CC(C)OCCCn1c(=O)c2ccccc2n2c(-c3ccc(F)c(F)c3)nnc12,inactive: -20.8%
10,CCC1CN(C(=O)N2CCC(C(=O)NCc3ccc(C)o3)CC2)c2ccccc2O1 (stereo not given),inactive: 9.54%
11,COc1ccc(Nc2cc(C(=O)NCc3ccccc3)c3ccccc3n2)cc1,inactive: -1.14%
12,Cc1nn(-c2ccc(N3CCCC3)nn2)c(C)c1CCC(=O)NCc1ccc(F)cc1,inactive: 1.22%
13,O=C(Cn1c(=O)n(Cc2ccc(F)cc2)c(=O)c2sc3ccccc3c21)NCc1ccccc1,inactive: -11.7%
14,O=C(Nc1cccc(-c2nc3cc(Cl)ccc3o2)c1)c1ccc(F)cc1,inactive: 0.0587%
15,Cc1ccc(OCCSc2nc3ccccc3n2CC(=O)N2CCCCC2)c(C)c1,inactive: 1.06%
16,COc1ccc(-c2nc3sc(CCNC(=O)C(=O)Nc4ccc(C)cc4C)c(C)n3n2)cc1,inactive: -0.205%
17,Cc1ccc(NC(=O)C2CCC(CNS(=O)(=O)c3cccc4nsnc34)CC2)c(C)c1 (stereo not given),inactive: -8.93%
18,O=C(Cn1c(=O)oc2cc(S(=O)(=O)N3CCCC3)ccc21)Nc1ccc(OC(F)(F)F)cc1,inactive: 3.39%
19,Cc1nc2ccc(S(=O)(=O)N(CC(=O)Nc3cccc(C)c3C)Cc3ccccc3)cc2s1,inactive: 3.42%
20,Cc1ccc(C)c(Cn2c(C(C)NC(=O)c3ccccc3)nc3ccccc32)c1 (stereo not given),inactive: -1.18%
21,O=C(CCn1cnc2onc(-c3ccc(F)cc3)c2c1=O)N1CCN(c2ccccc2)CC1,inactive: 0.365%
22,COc1cccc(OCc2nc3ccccc3n2C)c1,inactive: -26.9%
23,O=C(NCc1noc2ccccc12)N1CCN(c2ccccc2F)CC1,inactive: -0.365%
24,CCOc1cccc2cc(-c3nc(-c4ccc(Cl)cc4)c(C)s3)c(=O)oc12,inactive: -0.388%

row,SMILES,"activity change, negative = inhibition"
1,COc1ccc(-c2ccc(NS(=O)(=O)c3ccccc3Cl)cc2)nn1,inactive: 3.13%
2,Cc1nc(N2CCOCC2)c2c(C(=O)N3CCN(c4ccc(Cl)cc4)CC3)c(C)oc2n1,inactive: 2.68%
3,COc1ccc(Cn2c(CCC(=O)Nc3cccc(Cl)c3)nc3cccnc32)cc1,inactive: -14.4%
4,CCOc1ccc(C(c2c(C)[nH]n(-c3ccccc3)c2=O)c2c(C)[nH]n(-c3ccccc3)c2=O)cc1OC,inactive: -1.33%
5,COc1ccc(-c2nsc(NC(=O)c3cccc(OC)c3)n2)cc1,inactive: 0.158%
6,CCN(CC)CCNC(=O)c1ccc2c(=O)n3nc(Nc4cccc(Cl)c4C)sc3nc2c1,inactive: -24.8%
7,CCc1ccc(-c2cn3c(n2)sc2cc(C(=O)NCCCc4ccccc4)ccc23)cc1,inactive: 3.85%
8,CCOc1ccccc1CNC(=O)c1ccc2nc(CCc3ccccc3)oc2c1,inactive: -5.18%
9,CCc1nn2c(=O)cc(COC(=O)c3cccs3)nc2s1,inactive: -6.59%
10,COC(=O)c1ccc(CN(Cc2ccc(OC)c(OC)c2)S(=O)(=O)c2ccc(F)c(C(=O)Nc3cc(C)ccc3C)c2)cc1,inactive: -10.8%
11,CCOc1ccccc1NC(=O)CN1Cc2ccccc2C1=O,inactive: 0.359%
12,N#Cc1nc(/C=C/c2ccc(F)cc2)oc1N1CCCCC1,inactive: 0.0534%
13,CC(Oc1ccccc1)C(=O)Nc1ccc(C(=O)OCc2cc(=O)n3ccsc3n2)cc1 (stereo not given),inactive: 8.53%
14,Cc1cccc(C(=O)NCC(=O)OCc2cc(=O)n3nc(C)sc3n2)c1,inactive: -9.82%
15,CCOC(=O)c1ccc(NC(=O)Cn2cc(S(=O)(=O)Cc3ccccc3F)c3ccccc32)cc1,inactive: -6.79%
16,CCCOc1ccccc1C(=O)Nc1ccc(-c2nc3ccc(C)cc3s2)cc1,inactive: 1.4%
17,Cc1cccc(Nc2cc(C)nc3nc(Cc4ccc(Cl)cc4)nn23)c1,inactive: 1.49%
18,Cc1cc(-c2ccccc2)nc2cc(C(=O)Nc3cc(C(F)(F)F)ccc3Cl)nn12,inactive: 12.8%
19,COc1ccc(CNC(=O)c2ccc3c(Cl)c4c(nc3c2)CCCC4)c(OC)c1,inactive: -6.93%
20,Cc1nc(SCC(=O)Nc2ccc(Cl)cc2C(F)(F)F)[nH]c(=O)c1Cc1ccccc1,inactive: -10.3%
21,Cc1ccc(Cn2cc3c(n2)-c2c(oc(C(=O)Nc4ccc(F)cc4F)c2C)CC3)cc1,inactive: 6.98%
22,CCN(Cc1ccccc1)Cc1c(O)ccc2c(=O)c(-c3ccccc3Cl)coc12,inactive: 2.15%
23,CCn1cc(C(=O)NCCCOC(C)C)c(=O)c2cc(S(=O)(=O)N(C)C3CCCCC3)ccc21,inactive: -1.14%
24,O=C(NCc1ccccc1)c1ccc(Cn2c(=O)c3cccn3c3cccnc32)cc1,inactive: -10.5%

row,SMILES,"activity change, negative = inhibition"
1,CCOC(=O)c1c(-c2ccccc2)csc1NC(=O)c1cc(-c2cccc(Cl)c2)on1,inactive: 1.24%
2,Cc1ccc(C)c(N2CCN(S(=O)(=O)c3ccc4c(c3)n(C)c(=O)c(=O)n4C)CC2)c1,inactive: -11.4%
3,COc1cc(OC)c(NC(=O)CSCc2nc(-c3ccc(OC)c(OC)c3)no2)cc1Cl,inactive: -10.9%
4,CC(=O)c1cccc(NC(=O)c2ccc3c(c2)c(C)c(C)n3Cc2ccc(Cl)cc2)c1,inactive: -18.2%
5,O=C(Nc1cc(-c2nc3cc(Cl)ccc3o2)ccc1Cl)c1cc2ccccc2o1,inactive: 8.32%
6,COc1ccccc1NC(=O)CCn1cnc2onc(-c3ccc(F)cc3)c2c1=O,inactive: -8.5%
7,COc1cc(C)ccc1OCCSc1nc2ccc(NC(=O)c3ccc(C)cc3)cc2s1,inactive: -1.84%
8,CC1(C)CC(=O)c2cc(-c3nc(-c4ccc(Cl)cc4)cs3)c(=O)n(-c3cccc(F)c3)c2C1,inactive: -2.45%
9,COc1ccc(-c2ccc(CCC(=O)O)n2CC(=O)Nc2cccc(Cl)c2C)cc1,inactive: -15.3%
10,COc1ccc(CNC(=O)CCc2c(C)nc3nc(CNC(=O)OC(C)(C)C)nn3c2C)cc1,inactive: 0.728%
11,Cn1cc(C(=O)NCCc2ccccc2)c(=O)c2cc(S(=O)(=O)N3CCCCCC3)ccc21,inactive: 7.37%
12,Cc1c(C(=O)N(Cc2ccc(N(C)C)cc2)Cc2ccco2)oc2cc(Br)ccc12,inactive: 5%
13,CC(=O)c1cccc(Nc2nn(-c3ccc(OC(F)(F)F)cc3)nc2C(C)=O)c1,inactive: 0.759%
14,CCCSc1nnc2c(n1)OC(c1ccc(OCC(=O)O)cc1)Nc1ccccc1-2 (stereo not given),inactive: 1.55%
15,COc1ccccc1-c1noc(-c2ccc(NCc3cccnc3)c([N+](=O)[O-])c2)n1,inactive: -2.24%
16,O=C(CN1C(=O)CC(c2ccco2)Sc2ccccc21)Nc1ccc(Br)cc1 (stereo not given),inactive: 0.0263%
17,COc1ccc(-n2ccn(Cc3ccccc3C)c(=O)c2=O)cc1,inactive: 0.0552%
18,Cc1ccc(OCC(=O)Nc2ccc3[nH]c(=O)sc3c2)cc1,inactive: -9.65%
19,CCc1cc2c(cc3c(=O)n(CC(=O)NC4CCCCC4)ncn32)s1,inactive: -6.49%
20,COc1cccc(C(c2sc3nc(-c4ccco4)nn3c2O)N2CCN(c3ccccc3F)CC2)c1 (stereo not given),inactive: 1.01%
21,CCOc1ccc(N(C(C)C(=O)NCCSc2ccc(C)cc2)S(C)(=O)=O)cc1 (stereo not given),inactive: -25.8%
22,CCCCn1cc(S(=O)(=O)c2ccc(CC)cc2)c(=O)c2cc(F)c(N3CCOCC3)cc21,inactive: -2.69%
23,Cc1cc(C)cc(NC(=O)C(=O)NCC(c2cccnc2)N2CCN(c3ccccc3)CC2)c1 (stereo not given),inactive: -3.2%
24,O=C1CN(C(=O)Nc2ccccc2Cl)C(c2ccccc2)c2c(sc3c2CCCC3)N1 (stereo not given),inactive: 3.6%

row,SMILES,"activity change, negative = inhibition"
1,Cc1nn(-c2ccccc2)c2c1N(CCCC(=O)NCc1ccccc1)C(=O)CS2,inactive: -3.88%
2,COc1ccc(NC(=O)C(C)Sc2cc(-c3ccccc3)nc(C)n2)cc1Cl (stereo not given),inactive: -3.4%
3,COc1ccc(-c2cc(C(=O)NCCc3ccc(OC)c(OC)c3)c3ccccc3n2)cc1,inactive: 14%
4,O=C(COc1ccc(F)cc1)Nc1ccccc1OCc1cc(=O)n2ccccc2n1,inactive: 8.37%
5,COc1ccc(-c2noc(-c3ccc(NC4CCCCC4)c([N+](=O)[O-])c3)n2)cc1,inactive: 2.86%
6,CCc1nn2c(=O)cc(COC(=O)c3ccc(NC(=O)C4CCCCC4)cc3)nc2s1,inactive: 0%
7,CCC1CCc2nc3sc(C(=O)Nc4cccc(C(F)(F)F)c4)c(N)c3cc2C1 (stereo not given),inactive: -15.8%
8,CCCc1cc(=O)oc2cc(C)c3c(C(C)(C)C)coc3c12,inactive: 2.78%
9,COc1cccc(NC(=O)c2ccc3[nH]c(C)cc(=O)c3c2)c1,inactive: -2.81%
10,O=C(CCn1c(=O)c2cccn2c2cccnc21)NCc1ccccc1F,inactive: 0.585%
11,COc1ccc(S(=O)(=O)Nc2cc3c(cc2N2CCOCC2)n(C)c(=O)n3C)cc1,inactive: 5.53%
12,COC(=O)c1ccc(Cn2nc(-c3ccc(C)cc3)ccc2=O)cc1,inactive: -4.88%
13,NC(=O)CSc1nnnn1-c1cccc(O)c1,inactive: -1.79%
14,COc1cccc(CN2C(=O)C3(SCC(=O)N3c3ccc(C(C)C)cc3)c3ccccc32)c1 (stereo not given),inactive: -2.11%
15,Cn1c(SCc2ccccc2Cl)nc2c([nH]c3ccccc32)c1=O,inactive: -0.0889%
16,O=C(c1ccc2c(c1)OCCO2)N(Cc1cccnc1)c1nc2c(F)cc(F)cc2s1,inactive: -4.39%
17,COc1ccc(N(CC(=O)Nc2cc(Cl)ccc2C)S(=O)(=O)c2c(C)noc2C)cc1,inactive: -17.3%
18,CCOc1ccc(NS(=O)(=O)c2ccc3[nH]cc(C(=O)N4CCCCCC4)c(=O)c3c2)cc1,inactive: 1.75%
19,CCOc1ccc(C(=O)Nc2ccc3oc(-c4ccc(Br)cc4)nc3c2)cc1,inactive: 10.2%
20,Cc1ccccc1-c1nc(SCC(=O)NCC2CCCO2)c2c(=O)n(C)c(=O)n(C)c2n1 (stereo not given),inactive: 5.7%
21,COc1ccc(Cc2nc3ccc(C(=O)NCCCN4CCN(C)CC4)cc3o2)cc1,inactive: 1.43%
22,COCCNC(=O)c1ccc2c(=O)n(CCOC)c(SCC(=O)c3c[nH]c4ccccc34)nc2c1,inactive: 2.83%
23,COc1ccc(N2CCN(C(=O)c3sc4nc5n(c(=O)c4c3C)CCC5)CC2)cc1,inactive: -17.1%
